Measured values taken from publication PMC4336329 (PLoS ONE, 2015).
Hit rate of the full screen: of about 310,000 compounds, about 2,200 (0.71%) showed an effect of 50% or more. Effects have a minus sign here. This is one part of the list.

These compounds were tested against human ether-à-go-go-related gene (hERG) potassium channel (human, UniProt Q12809) (assay: primary screen, population patch clamp on CHO cells stably expressing hERG).
Chain of human ether-à-go-go-related gene (hERG) potassium channel (Q12809 whole entry, looked up): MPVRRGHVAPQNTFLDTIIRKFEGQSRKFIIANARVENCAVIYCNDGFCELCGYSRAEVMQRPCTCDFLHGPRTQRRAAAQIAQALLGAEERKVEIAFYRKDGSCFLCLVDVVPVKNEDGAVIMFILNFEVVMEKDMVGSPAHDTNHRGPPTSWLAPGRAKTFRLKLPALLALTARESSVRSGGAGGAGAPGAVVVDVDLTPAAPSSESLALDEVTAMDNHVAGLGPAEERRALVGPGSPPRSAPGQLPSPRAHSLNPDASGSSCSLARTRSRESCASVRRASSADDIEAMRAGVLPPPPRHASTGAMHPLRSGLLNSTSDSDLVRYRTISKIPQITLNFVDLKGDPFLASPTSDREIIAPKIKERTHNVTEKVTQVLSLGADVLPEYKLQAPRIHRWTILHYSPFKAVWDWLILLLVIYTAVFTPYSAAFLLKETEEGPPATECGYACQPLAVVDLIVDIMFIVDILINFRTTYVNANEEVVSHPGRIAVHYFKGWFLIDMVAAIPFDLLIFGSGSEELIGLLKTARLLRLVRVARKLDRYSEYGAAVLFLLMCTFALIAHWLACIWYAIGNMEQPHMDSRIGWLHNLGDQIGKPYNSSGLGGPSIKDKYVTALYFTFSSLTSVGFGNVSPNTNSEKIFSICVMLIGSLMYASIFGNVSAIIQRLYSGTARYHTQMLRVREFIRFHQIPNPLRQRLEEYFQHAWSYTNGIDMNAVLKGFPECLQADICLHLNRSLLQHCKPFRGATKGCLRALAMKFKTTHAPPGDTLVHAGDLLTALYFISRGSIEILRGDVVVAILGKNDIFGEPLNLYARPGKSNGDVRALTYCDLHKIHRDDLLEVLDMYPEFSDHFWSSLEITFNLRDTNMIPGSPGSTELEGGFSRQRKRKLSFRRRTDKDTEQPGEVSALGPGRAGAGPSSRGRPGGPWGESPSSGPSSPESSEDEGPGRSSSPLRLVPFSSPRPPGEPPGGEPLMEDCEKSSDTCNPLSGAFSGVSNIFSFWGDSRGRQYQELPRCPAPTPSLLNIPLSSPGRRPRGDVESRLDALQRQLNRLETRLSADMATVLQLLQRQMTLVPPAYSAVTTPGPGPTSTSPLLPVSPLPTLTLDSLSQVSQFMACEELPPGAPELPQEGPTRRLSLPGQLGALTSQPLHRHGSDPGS

SMILES | hERG current change (%, negative = inhibition) at 1uM [%]
CC(=O)c1c(C)oc2ccc(N(C(C)=O)S(=O)(=O)c3ccc(F)cc3C)cc12 | 8.28
CCOc1ccc(NC(=O)C2CC(=O)N=C(N)S2)cc1 (centres unmarked) | 11.7
CSc1ncccc1C(=O)OCC(=O)N1CCOCC1 | 12.6
COc1ccc(N2CCN(C(=O)COC(=O)CCc3ccccc3OC)CC2)cc1 | 1.44
O=C(Nc1ccc2nc(-c3cccnc3)[nH]c2c1)C12CC3CC(CC(C3)C1)C2 | 10.6
Cc1ccc(Nc2cc(C)nc3c(C)ccc([N+](=O)[O-])c23)cc1 | 11.7
C=CCNC(=S)N1CCN(Cc2ccc3c(c2)OCO3)CC1.O=C(O)C(=O)O | 10.1
C=CCn1c(O)c(C=NC2CCN(Cc3ccccc3)CC2)c(=O)[nH]c1=O | -2.64
CCNCCC(=O)N1c2ccccc2Sc2ccc(C(F)(F)F)cc21.Cl | 12.1
NC(=S)Nn1c(CCC(=O)O)ccc1-c1ccccc1 | 6.34
COc1ccccc1C(=O)N/N=C(\C)CC(=O)Nc1ccccc1NC(C)=O | 11.3
C=CCN(CC=C)C(=O)C[n+]1ccc(C(N)=O)cc1.[Cl-] | 6.33
CSC(=NC#N)N1CCN(C(c2ccccc2)c2ccccc2)CC1 | 3.34
CCN(c1ccccc1)S(=O)(=O)c1cccc(C(=O)NCc2cccnc2)c1 | 1.22
Cc1cc(NC(=O)Nc2ccccc2[N+](=O)[O-])n(C)n1 | 15.8
N#Cc1ccc(-c2ccc(F)cc2)nc1Sc1ccc(F)cc1 | 1.32
O=C(CN1CCOCC1)N/N=C/c1ccccc1 | 9.36
Brc1ccc2nc(-c3c[nH]c4ccccc34)cn2c1 | 11.8
O=C(NCc1cccc(CNC(=O)Nc2cccc(O)c2)c1)Nc1cccc(O)c1 | 17.1
c1ccc(Cn2c3ccccc3c3nnc(SCCN4CCCCC4)nc32)cc1 | -6.31
CCC(C)[C@H]1CNC(=S)N1CCc1cc(C(F)(F)F)cc(C(F)(F)F)c1 (some centres unmarked) | 10.7
CC(=O)N(C)c1cccc([N+](=O)[O-])c1 | 9.66
Cc1ccc2c(c1)N(CC(=O)N1CCOCC1)C(=O)CO2 | 8.67

SMILES | hERG current change (%, negative = inhibition) at 1uM [%]
COc1cc(/C=C2/C(=O)NN(c3ccc(F)cc3)C2=O)cc(Cl)c1O | 13.4
O=C(CCCOc1ccc(Br)cc1)Nc1ccc(S(=O)(=O)N2CCOCC2)cc1 | 11.4
Nc1nc(SCC(=O)N2CCOCC2)n[nH]1 | 17.9
COc1ccc(CCNC(=O)C2CCN(Cc3nc(-c4ccccc4F)oc3C)CC2)cc1OC | -17.3
CC(C)NC(=O)C1CCN(C2CCN(C(=O)c3scc4c3CCCC4)CC2)CC1 | 4.56
CC(C)Sc1nc2ccccc2n1CC(=O)NCc1ccc2c(c1)OCO2 | 15.8
COc1cc(NC(=S)N2CCC(C(O)(c3ccccc3)c3ccccc3)CC2)cc(OC)c1 | 1.23
CCOC(=O)N1CCN(C(=O)CN(C2CCCCC2)S(=O)(=O)c2ccc(Cl)cc2)CC1 | 10.9
Cc1cc(NC(=O)CSc2nc(-c3ccccc3Cl)nc3c2c(=O)n(C)c(=O)n3C)no1 | 9.96
CCOc1c(Cl)cc(CNCCc2c[nH]c3ccccc23)cc1OC.Cl | 0.668
Cc1ccc(C(=O)C(C)OC(=O)CNC(=O)c2ccc(Br)o2)cc1 (centres unmarked) | -15.8
CC(NC(=O)c1ccncc1)c1ccc(Cl)cc1Cl (centres unmarked) | 12.8
C[NH+](C)CCCN1c2ccccc2Sc2ccc(Cl)cc21.[Cl-] | -2.42
CCN1CCN(S(=O)(=O)c2ccc3c(c2)OCCO3)CC1 | 15.9
COC(=O)Cc1ccc(NC(=O)c2ccc3c(c2)C(=O)N(Cc2ccco2)C3=O)cc1 | 2.32
CCn1c(SCC(=O)c2ccccc2)nnc1-c1ccoc1C | 8.33
O=C(NN=C1CCCC1)c1cc(-c2ccc(F)cc2)nc2ccccc12 | 8.24
Cc1cccc(N2CCN(CC(=O)Nc3ccccc3[N+](=O)[O-])CC2)c1C | 7.72
COc1ccccc1C(=O)Nc1ccc(OC(C)C(=O)N2CCOCC2)cc1 (centres unmarked) | 3.33
CCCc1cc(=O)n2[nH]c(-c3cccc(Br)c3)cc2n1 | 9
COc1cc(/C=N/NC(=O)c2ccncc2)ccc1OCC(=O)Nc1ccc(C)c(C)c1 | 5.37
O=C(Nc1ccc(N2CCN(Cc3ccccc3)CC2)cc1)c1ncn[nH]1 | 11.1
COC(CNC(=O)C1CCCN(S(=O)(=O)c2c(C)noc2/C=C/c2cccs2)C1)OC (centres unmarked) | 7.28

SMILES | hERG current change (%, negative = inhibition) at 1uM [%]
Cc1ccc(OCC(=O)Nc2ccc(S(=O)(=O)Nc3ccccn3)cc2)cc1C | 12.3
CC(=O)c1sc(NC(=O)COc2c(C)cc(Cl)cc2C)nc1C | 18
O=C(Nc1cccc(Cl)c1)c1ccc2ncsc2c1 | 14.7
COc1cccc(CNC(=O)CCCn2ccc3cc(S(=O)(=O)N4CCCC4)ccc32)c1 | 12.3
CSc1nncc(-c2ccc(F)cc2)n1 | 0.691
COc1ccc(Nc2nc3c(c(=O)n(C)c(=O)n3C)n2CCO)cc1 | 13.1
C/C(=N\NC(=O)Cc1cccn1C)c1cccs1 | 21.2
Cc1cc(C)c(S(=O)(=O)Nc2ccc(N(C)C)cc2)c(C)c1-n1cnnn1 | 9.5
Cc1cc(=O)oc2cc(OCC(=O)NC(Cc3c[nH]c4ccc(O)cc34)C(=O)O)c(Cl)cc12 (centres unmarked) | -7.05
Cc1ccc(N=Cc2ccc(O)cc2O)cc1F | 17.7
C=CCn1c(C)cc(C(=O)CN2C(=O)c3ccccc3C2=O)c1C | 5.61
Cc1ccc2ncnc(Nc3ccc(C)c(C)c3)c2c1 | -0.718
COc1ccc(-c2cc3c(=O)n(CC(=O)NCCCN4CCC(N5CCCCC5)CC4)ncn3n2)cc1 | 16.5
CCn1cc(C(=O)O)c(=O)c2cc(S(=O)(=O)N(C)C)ccc21 | -1.51
COCC1CCN(Cc2cn[nH]c2-c2ccc(OC)cc2F)C1 (centres unmarked) | 3.85
CN(Cc1cn[nH]c1-c1ccc2c(c1)OCO2)C1CCOCC1 | 8.56
Cc1ccc(C(=O)CCC(=O)Nc2ccc(Cl)c(S(=O)(=O)Nc3cccc(Cl)c3)c2)cc1 | 9.32
CC(=O)Nc1ccc(C(=O)Nc2cccc(S(=O)(=O)N(C)c3ccccc3)c2)cc1 | 7.73
CS(=O)(=O)Cc1cccc(C(=O)NC2CCSc3ccccc32)c1 (centres unmarked) | 16.3
CCc1nc2ccc(C)cc2c(C(=O)NC2CCCCC2C)c1C (centres unmarked) | -4.7
CCN(CC)S(=O)(=O)c1cccc(C(=O)OCC(=O)C23CC4CC(CC(C4)C2)C3)c1 | 6.54
CC(C)(C)n1ncc2c(=O)n(CC(=O)Nc3ccc4c(c3)OCO4)cnc21 | 13.1
CC(=O)N1N=C(c2ccc(C)cc2)OC1c1cccnc1 (centres unmarked) | 2.91

SMILES | hERG current change (%, negative = inhibition) at 1uM [%]
O=C(Nc1cc2c3c(c1)CC(=O)N3CCC2)C1CCCCC1 | 2.81
O=C(NCS(=O)(=O)c1ccccc1)c1ccccc1 | 2.78
NC(=O)CN1CCCN(S(=O)(=O)c2ccc(Br)cc2)CC1 | -6.9
COc1ccccc1OCC(=O)OCn1c(SC)nnc(C)c1=O | 22.1
O=C(NCc1nc2ccccc2[nH]1)C1=C[C@@H](C2CCCCC2)C[C@@H](OCCCCO)O1 | 10.9
CCN1CCCC1CN(Cc1cc2ccc(C)cc2[nH]c1=O)C(=S)Nc1ccccc1OC (centres unmarked) | 17.1
Cc1cc(NC(=O)Nc2ccc3c(ccn3C)c2)sn1 | 16.1
COc1cccc(NC(=O)C2C3C=CC(O3)C2C(=O)NCc2cccnc2)c1 (centres unmarked) | -17.7
CCN1CCN(Cc2ccc(C)cc2C)CC1 | 11.9
CCCn1c(N2CCN(CC(=O)Nc3ccc4c(c3)OCCO4)CC2)nc2ccccc21.Cl | -29.2
Cc1ccn2c(=O)c(NC(=O)c3ccc(Br)o3)c(C)nc2c1 | 13.6
Cc1sc2nc(SCC(=O)Nc3ccccc3F)[nH]c(=O)c2c1C | 13.4
COc1ccc(CC(=O)N2CCc3ccccc3C2)cc1 | 7.2
Nc1ccc(C(=O)Nc2cccc(N)c2)cc1 | 13.9
c1cc2c(cc1Cn1cnnn1)OCO2 | 12.6
CC1(C)Cc2cccc(OCC(=O)N3CCN(c4ccccc4)CC3)c2O1 | -2.57
C/C=C(/C)C(=O)O[C@@H]1c2c(ccc3ccc(=O)oc23)O[C@@H]1C(C)(C)OC(=O)/C(C)=C\C | 11.4
COc1cc(/C=C/C(=O)OCC(=O)N2CCCC2)cc(OC)c1OC | 10.9
COc1cccc(NC(=O)c2c(C)nn(-c3ccccc3)c2Cl)c1 | 14.9
CSc1ncccc1C(=O)Nc1cc(C)ccn1 | 13.9
